The other results are listed elsewhere or left out.
Each molecule was assayed on T1, C. trachomatis L2/434/Bu expressing GFP (CTL2-GFP). Conditions: total inclusion area; 28.5 h, 10 µM; inhibitor.
T1 construct: L2/434/Bu GFP intracellular growth in HeLa cells
Parameters: species or system HeLa; C. trachomatis total inclusion area by high-content imaging, normalised to DMSO
Outline: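 Imaging read-out: GFP inclusions and Hoechst nuclei captured by high-content imaging after fixation. Inclusion area/number = chlamydial growth; nuclei count = host cell viability. MIC calculated per earlier method.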

In order of falling “% of control remaining” value:
1. O=C(Cn1c(=O)c2nncn2c2ncccc21)NC1CCCCCC1 [CBK288600]  127.349
2. COc1ccc(CN2CCC[C@H]2c2nc(-c3ccc(OC)nc3)no2)c(O)c1 [CBK288898]  121.303
3. COc1cccc(CC(=O)N(CCC#N)Cc2ccco2)c1 [CBK304859]  116.056
4. COc1c(C(=O)Nc2ccc(CN3CCOCC3)cc2)cc2ccccc2c1Br [CBK268593]  115.621
5. Cc1cc(C)n(CCNCc2cc(-c3ccc(F)cc3)c[nH]c2=O)n1 [CBK284694]  115.299
6. N#C/C(=C/c1ccc(Sc2ccc(Cl)cc2)o1)c1ccc(C(=O)O)cc1 [CBK268996]  114.534
7. CC(C)c1ccc(N2C(=O)N[C@@H]3CCN(C(=O)c4cccs4)[C@@H]3C2=O)cc1 [CBK289286]  114.017
8. O=C1NCCN(C(=O)COc2ccc(F)cc2F)C1Cc1ccccc1-c1cccnc1 (stereo not shown) [CBK285832]  113.654
9. Cc1cc(C)c(OCC(=O)Nc2ccc3oc(-c4cncc(Br)c4)nc3c2)c(Cl)c1 [CBK266634]  110.297
10. CC(C)C(=O)Nc1ccc(-c2ccsc2)c2ccccc12 [CBK083758]  109.06
11. Fc1ccc(-c2cnn(-c3ccc(OC(F)(F)F)cc3)n2)c(F)c1 [CBK112740]  106.549
12. COc1ccc(C(=O)N2C[C@@H]3C[C@H](C2)c2ccc(NC(=O)C4CC4)c(=O)n2C3)cc1 [CBK289072]  105.717
13. CCCn1c(C)cc2cc(NC(=O)Cn3ccnc3)ccc21 [CBK281549]  105.404
14. O=C(Nc1ccc(O)cc1)c1ccc(N2C(=O)c3cccc([N+](=O)[O-])c3C2=O)cc1 [CBK262600]  104.707
15. Cn1cnnc1SCC(=O)Nc1c(F)cccc1F [CBK295150]  102.836
16. Cc1ccc(C)c(C2CCCN2C(=O)c2ccc(=O)n(CC(=O)Nc3ccc(F)cc3)c2)c1 (stereo not shown) [CBK286495]  102.279
17. Cc1nc2ccccc2n1CC(=O)NCCN1CCCC1 [CBK267336]  96.316
18. N#CC1=C(N)n2c(s/c(=C\c3ccncc3)c2=O)=C(C#N)C1c1ccncc1 (stereo not shown) [CBK262563]  94.9215
19. CC1CC(=O)N(c2cccc(C(=O)Nc3cccc(-c4cccc(F)c4)c3)c2)C1=O (stereo not shown) [CBK285734]  89.5059
20. O=C(Cn1cnc(-c2nccs2)n1)N1CCCCCC1 [CBK306165]  88.9593
21. CCCn1c(O)nnc1-c1cccnc1 [CBK074889]  88.8462
22. O=C1OC(c2ccc(N3C(=O)c4cccc5cccc(c45)C3=O)cc2)(c2ccc(N3C(=O)c4cccc5cccc(c45)C3=O)cc2)c2ccccc21 [CBK261845]  86.84
23. Cc1c(C(=O)NCCN2CCC(C)CC2)oc2c1C(O)CC(C)(C)C2 (stereo not shown) [CBK282100]  86.5513
24. Cc1csc(N2CCC(NC3COc4ccc(F)cc4C3)CC2)n1 (stereo not shown) [CBK304751]  85.827
25. N#Cc1ccccc1N1C(=O)c2cccc([N+](=O)[O-])c2C1=O [CBK115322]  85.211
26. CN1CC2(CCCN(Cc3noc(-c4ccccc4)n3)C2)OC1=O (stereo not shown) [CBK306952]  82.3759
27. C=C(C)Cn1c(SCC(C)C)nnc1-c1ccccc1OC(F)(F)F [CBK200080]  80.8475
28. C(=C\c1ccccc1)/Cn1c(COc2ccccc2)nc2ccccc21 [CBK265535]  80.5426
29. CCCCOc1ccc(NC(=O)NCCc2cccs2)cc1 [CBK045202]  77.9593
30. Cc1ccc(C(=O)NCCNc2cnccn2)cc1S(C)(=O)=O [CBK246280]  76.1955
31. c1ccc2c(c1)oc1cccc(-c3cc(NCCc4c[nH]cn4)ncn3)c12 [CBK037708]  74.449
32. NS(=O)(=O)c1ccc(NC(=S)NCCN2CCOCC2)cc1 [CBK265818]  68.4758
33. O=C(Nc1ccccn1)Nc1ccccn1 [CBK015518]  68.2237
34. COc1ccc(NS(=O)(=O)c2ccc3c(c2)oc(=O)c2cc(S(=O)(=O)Nc4ccc(OC)cc4)ccc23)cc1 [CBK268439]  61.0874
35. Cc1cc(CC(=O)N/N=C/c2ccccc2)[nH]n1 [CBK007500]  59.1781
36. CCOC(=O)C1=NOC2COC3(CCN(c4ncccn4)CC3)OCC12 (stereo not shown) [CBK018602]  55.1996
37. N=c1n(CCN2CCCCC2)c2ccccc2n1CC(=O)c1cccc([N+](=O)[O-])c1 [CBK263481B]  51.4797
38. OC(CN1CCN(Cc2ccccc2)CC1)Cn1c2ccc(Br)cc2c2cc(Br)ccc21 (stereo not shown) [CBK262203]  46.6979
39. O=C(NCCOc1cccc(Cl)c1Cl)c1ccccc1-c1ccccc1 [CBK267390]  7.81
40. COc1ccccc1N(CCCc1cc(C(F)(F)F)cc(C(F)(F)F)c1)C(=O)C(N)C(C)C (stereo not shown) [CBK001004T]  0.1135
